Test results: the RNAGym collection of RNA variant scans (doi:10.7554/elife.90254)
The source gives no read counts; variants with many changes may rest on few reads.

B1: LINE1-mini (parent)
chain: GGCAGAGCUCAACACAGCGUGGCAAAGUGGCUGUGGCUAGACUGCC

Variants of: B1
Assay: self-cleavage, relative activity (ratio to wild type); higher = more cleavage; in vitro, sequencing; the parent is a self-cleaving ribozyme

Variant | self-cleavage
U34G C37U G40C | 0.03
U32A G33A U38A | 0.02
A39U G40C G44C | 0.06
C31G A39U C42U U43C | 0.07
U34A A41C U43A G44U | 0.02
G36C U38C A39C C42G | 0.04
C31A U32C C46U | 0.03
G40A C42U C46U | 0.08
U34A G36A G40A | 0.06
G40A G44C C45U | 0.06
C31A U34A C45G | 0.03
C31G G36U C42U | 0.05
U32C G33C C46G | 0.02
C37A U38A G40A | 0.12
G36U U43C C46A | 0.02
G35C A39U U43C | 0.09
U34A C37A U38A | 0.06
G36U A39U C45U C46A | 0.13
U34G C37U C45U C46G | 0.23
G33A G35C A39C G44U | 0.02
U32C G36U U43C | 0.05
C31A G33U C37U | 0.08
C31G U32A C42G | 0.01
U32G G40U U43A | 0.05

Variant | self-cleavage
C31A U38G C45A | 0.04
U32C G40A A41C C46A | 0.05
G36U U38G G44C | 0
C31U A39G A41U | 0.05
A39C G40U C46A | 0.13
C37A G40U C45G | 0.43
G35U C37A C45U | 0.07
G33C C45G C46U | 0.06
C31A G40U G44U C45A | 0
G33C G35U G40A C42G | 0.06
A41G G44A C45A | 0.12
U34C G35U C45G | 0.04
G33U G36C C37G U38C | 0.04
C31G U43G C45G | 0.04
C31A U34A C37A | 0.01
G35A U43A C46A | 0.09
U34G C42U U43G | 0.01
G33A G35U G44C C45G | 0.02
U38A G40U C45U | 0.02
G36C A41G C46A | 0.04
C42A G44A C46A | 0.04
U32C G36A G40A | 0.02
C31G A39G C46G | 0.01
A41C C42G C46G | 0.02

Variant | self-cleavage
G35U A39U C45G | 0.02
U32A A39G C45U | 0.15
C31G C37U C42A | 0.03
U32C G35A C37G | 0.02
C31G U32C A39C | 0.05
C31U C37A G44A C46A | 0.05
C31U G36U A41U C45A | 0.4
U32A G33C A41C | 0.03
G35U U38C G40C | 0.02
A41G C42A C46U | 0.04
C31G G36C G40A | 0.37
U34G G36A G44U | 0.01
U34C G36U A41U C42A | 0.07
G33U G40A U43G | 0.03
G33C G35U C37U | 0.12
G33U U38A A39U | 0.07
C31G G35U U38A | 0.01
U32A G35A C42A | 0.05
C31U U32G A39U G40C C42A | 0.03
C31U U32G C45A C46G | 0.03
G33C U38C C42U | 0.03
C31U G40U C45A | 0.02
C31G G35U G40A C46U | 0.03
C31G U34C G35C | 0

Variant | self-cleavage
C31A G40A A41U C45U | 0.02
A41G G44U C45U | 0.04
G33U U34G C42U C46A | 0.03
C31A U32C C45G | 0.02
G35U U38A U43A | 0.15
G36U U38A A39G | 0.01
G40C C42U C45G | 0.05
G36U U38G C45A | 0.02
G40U C42G C45A | 0.26
U32A A41U G44U | 0.01
G35U G36A A39U | 0.07
U32C U34G G35A | 0.06
C37A G40A C45U | 0.21
C31G C42U G44A | 0.04
U32A G35C A39U | 0.02
U32G G35A C37U U38G A39C | 0.02
G33C G36U G44U | 0.09
U32A G33U C45A | 0.07
C31G C37A G44U | 0.08
C37A C45U C46U | 0.79
U32A G36A A39C | 0.19
A41U C42U C45G C46A | 0.02
G36U C45A C46U | 0.06
G33A A41C G44U | 0.05

Variant | self-cleavage
G33U G40C C45A | 0.07
U38G A39G A41C | 0.01
U34A C37A U43C | 0.01
G33C A39C G40A | 0.03
C31U G33U C37A A39G | 0.04
C31A U32G U34A | 0.04
G36U C37A U38C | 0.03
G33U U43G G44U | 0.11
G33C C37A C42U | 0.01
U32C U34G C42A | 0.02
C31U G35U U38G C45G C46A | 0.03
U32A G35U C37U | 0.22
C37U C42U C45U | 0.02
U32C G35U G36U A39U | 0.1
G40A C42G U43G | 0.1
U32C G35U U38A A41C | 0.07
A39U C42A G44C | 0.04
U32C G35U C37U C42A | 0.05
G35A C37G C46U | 0.03
C31A G33U A41G | 0.05
G35U G40U C45G | 0.05
A41C U43G C45A | 0.03
C42U C45A C46U | 0.12
C37U A39U G40U | 0.34

Variant | self-cleavage
G33U U34G G40C | 0
G33A C37G G40U C45U | 0.01
U34G G40C C42G C46A | 0.05
C31U U38A C42A C45U | 0.02
C31U G36C C42U | 0.03
C37U U38C U43G C45A | 0.12
C31A U34G G35C U38C | 0.06
U32C G33A C37U | 0.06
G35U U43G G44U | 0.15
U32G U38A C46A | 0.02
C31U G40U C46A | 0.11
U43A C45A C46G | 0.11
C31G C37G C45G | 0.04
G35U C37A U38C | 0.04
A39C G40U A41C | 0.02
G33A C42A C46A | 0.04
U38G C42A C46U | 0.04
U34G U38G A39C | 0
G33U U34C C42G | 0.03
C37A A39G A41U | 0.03
C31A U38A A41C | 0.03
C31G C37A A39C C42A U43A C46U | 0.04
U32C U34G C37A | 0.02
G33U C37A C42A | 0.04

Variant | self-cleavage
C31G G36A C46A | 0.03
G33C A39U C42A | 0.06
U38A G40U C42A | 0.09
G33C G36A G40A C45A | 0.01
U34A A39G G44U | 0.03
G35C C42U C46A | 0.03
G36A A41C C42A | 0.1
C31U G35C C46G | 0.07
G36C G40U U43G | 0.1
G35C U38A A41G | 0.04
G33A U43G C45G | 0.08
U34G G36A C37U | 0.1
C31U G40C G44C | 0.02
G33C U38C G44U | 0.02
C31G A41G U43A | 0.04
G33A G35U G36A C37A | 0.05
U32A U43C G44C | 0.04
G35U C42U U43G | 0.27
U34A C37A G44A | 0.02
